# Reference: ChEMBL document CHEMBL4888484, “Replenishing the malaria drug discovery pipeline: Screening and hit evaluation of the MMV Hit Generation Library 1 (HGL1) against asexual blood stage Plasmodium falciparum ,using a nano luciferase reporter read-out” (2022)
# Screen size: about 150,000 compounds; about 540 (0.36%) showed an effect of 50% or more. The list shows a part of the results.
# System: Plasmodium falciparum
# Assay: Primary screen in NF54 nanoGlo assay, in single point, at 2uM, 72h; a lower Z score goes with more inhibition
# Type: functional, Erythrocyte
# Conditions: timepoint 72 hour
SMILES,% Inhibition [%],Z score
CC[C@@](C)(C(=O)NC1CCCCC1)N(Cc1cccs1)C(=O)CNC(=O)c1ccccc1,13,-2
CCCC(O)(CCC)CC(=O)Nc1cn(C)nc1-c1cnn(C)c1,7,-0.78
CCn1nncc1C(=O)N(CC1CCC1)CC1CC1,13,-1.51
O=C(Nc1cc(F)cc(F)c1)N1CCc2ccccc2[C@@H]1c1ccc(F)cc1,-6,0.96
Fc1ccc(-c2cnc3n2C[C@H](CNCc2ccccc2Cl)OC3)cc1,1,-0.13
CCn1ccc(CN(C)C(=O)c2ccc(COc3ccc(F)cc3F)o2)n1,-5,0.57
O=C(c1ccon1)N1CC2CCCCC2C1 (stereo not drawn),5,-0.71
COCCOCC(=O)NCc1cn2c(n1)C(=O)N(Cc1ccccc1)CC2,13,-1.73
COc1cc(CNC2CCCCCC2)ccc1OC[C@@H](O)CN1CCCCCC1,1,-0.22
Cc1cc(C)c2c(c1)O[C@H](c1ccc(N(C)C)cc1)CC2=O,-5,0.62
Cc1cc(CNC(=O)c2cccnc2O)no1,7,-0.63
O=C(Cn1ccc2cc(OCc3ccccc3)ccc21)Nc1ncc[nH]1,3,-0.31
O=C(O)[C@H]1CN(c2cc(C(F)(F)F)ccn2)CC12CCC2,-9,1.15
COc1ccc2cc1Oc1cccc(c1)CO[C@H]1CN(C(=O)CCC3CCN(C)CC3)C[C@@H]1NC(=O)CN(C)C2,0,0.05
Cc1cc(NC(=O)Nc2cccc3[nH]ccc23)no1,5,-0.89
Cc1ccoc1C(=O)N1CCn2c(C(N)=O)cnc2C1,-10,1
Cc1cc(N(C)CCc2cn[nH]c2)nc(N(C)C)n1,-3,0.5
CN1C[C@@H](CNC(=O)COc2ccccc2)N(Cc2cccnc2)[C@@H](c2ccccc2)C1=O,-7,0.97
OC1CCC(NC[C@H](O)COc2ccc(-c3ccccc3)cc2)CC1 (stereo partly drawn),0,0.03
Cc1nn(C)c(C)c1CN(C)c1nnc2ccccn12,-5,0.5
Cc1cc(Oc2ccccc2)nc(Oc2ccc(OCC(N)=O)nn2)n1,8,-0.99
NC(=O)c1nsc2c(=O)n(CC(=O)Nc3ccccc3Cl)cnc12,5,-0.94
COc1ccc(C(=O)N[C@@H]2C[C@H](COc3cccc(C)n3)[C@@H](O)[C@H]2O)cc1,3,-0.4
C[C@H]1CN(C(=O)C(=O)Nc2ccc3oc(C4CC4)nc3c2)CC(C)(C)O1,-10,1.98
CCOCCNC(=O)Nc1ccc2c(c1)COC2=O,-2,0.47
COc1cc(C(=O)NCc2nc(-c3cccs3)n[nH]2)on1,-23,2.33
N#Cc1ccc(OCCN2CCC[C@H]2c2nc3ccccc3s2)cc1,-2,0.34

SMILES,% Inhibition [%],Z score
O=C1CC[C@H](Cc2ccc(Cl)cc2)C(=O)N1,8,-1.24
CC(C)N1CC[C@H](NC(=O)c2cncc(-c3ccc(Cl)cc3)c2)C1=O,-1,0.1
Cc1ccc(NC(=O)C[C@H]2CCOC2)c(C)n1,-9,1.39
COc1cc(OC)c(NC(=O)N2CCN(C(=O)c3nonc3N)CC2)cc1Cl,5,-0.74
CCc1nnsc1C(=O)NCc1ccc(CN2CC(C)CC(C)C2)cc1 (stereo not drawn),-5,0.73
CC1(C(=O)NCc2ccc3cncn3c2)CCOCC1,8,-1.23
Cc1sc(-c2nc(-c3cccc(Cl)c3)no2)cc1S(=O)(=O)NCCN1CCCC1,-6,0.74
CCN(CC)C(=O)N1CCN(Cc2nc(C(C)(C)C)no2)CC1,-6,1.28
CCCCOc1ccc(N2C(=O)C3ON(c4ccccc4)C(c4ccncc4)C3C2=O)cc1 (stereo not drawn),-12,1.25
CC(C#N)C(=O)NC1CCCC(F)(F)C1 (stereo not drawn),6,-0.62
CC(=O)c1ccc(-n2nnc(C(=O)c3ccc(Cl)cc3Cl)c2C)cc1,-6,0.77
NCc1ccc(Br)c(C(F)(F)F)c1,-18,2.02
CC(C)(C)OC(=O)N1Cc2ccc(NCc3cscn3)cc2C1,1,-0.21
Cc1nccn1CC1(CNC(=O)c2ccc(-c3nccn3C)cc2)CC1,-15,1.81
CC(C)C[C@H]1NC(=O)[C@@H](c2ccc(O)cc2)NC1=O,5,-0.83
COc1ccc(NC(=O)Cn2c(=O)n(-c3ccc(F)cc3)c(=O)c3c2cc(C)n3C)cc1,-9,1.49
CC(C)(O)C(=O)N1CCC2CCC(C1)N2Cc1ccccc1 (stereo not drawn),1,-0.21
Cc1nnc(NC(=O)[C@H](C)Nc2ccc(F)cc2)s1,-17,1.95
Cc1cc(C)n(-c2ccc(C(=O)N(C)CCc3noc(C4CC4)n3)cc2)n1,-3,0.41
Cc1cccc(C)c1NC(=O)N(C)[C@H]1CC(C)(C)OC1=O,-3,0.38
CN1CC[C@H](C(=O)N2CCC(c3ccccc3)CC2)CC1=O,-6,0.77
CCN1CCN(C(=O)C2CC(c3cccc(OC)c3)NS(=O)(=O)N2C)CC1 (stereo not drawn),-32,2.85
CC1=CC[C@H]2CN(Cc3cnc4c(-c5ccccc5)cnn4c3)C[C@H]2C1,-15,1.52
CCCc1ccc(CN[C@@H](C(=O)O)c2ccnn2C)s1,-11,2.1
CN(CCc1cnccn1)Cc1c(F)ccc(C2OCCO2)c1Cl,5,-0.54
CCNC(=O)N1CCC2(CC1)CN(c1cccc(F)c1)[C@@H]2c1ccccc1,-1,0.19
CC(C)N(C)CC(=O)NC[C@H]1COC2(CCCCCC2)O1,0,0.04
